Experimental data: the RNAGym collection of RNA variant scans (doi:10.7554/elife.90254)
The source gives no read counts; variants with many changes may rest on few reads.

B1: LINE1-full (parent)
chain: UACGUAGGUGGUUUUCCCCUGAUAGUGCUAAGGGGGCCUGGAAGUUUGGACUGGGCAGAGCUCAACACAGCGUGGCAAAGUGGCUGUGGCUAGACUGCCUCUCUGGAUUCCUCGUCACUCAGCAGGGCAUCUCUGAGAGAAAUGCC

Variants of: B1
Test: self-cleavage, relative activity (ratio to wild type); higher = more cleavage; in vitro, sequencing; the parent is a self-cleaving ribozyme

Variant	self-cleavage
U13C A57G A117G	0.38
A64C U108C G122A	0.38
U1C G8C A22G U104G A117U	2.06
U26C U52G U87A U115C C146A	0
U12C A43G G74U U96C	0.02
U52A A59G A64U A77G	0.14
U9C C61U A94U	0.02
U14C C38U A43G G49U A78G	0.48
U12C A43G U112A	0.99
U15A A94G A140G	0.62
A6G G21U A64U A124U A138G	0.53
U20C A31G U100C U130A U132C	1.75
A57U A59G A92U	0.02
U39C U85A U91A	0.06
G74A A77G U91A A107G U134A	0.45
U14A A121G A136G A142G	1.15
U15C A77U U85C	0.04
U39A A42G U112C	1.32
U15A A121G A142G	1.52
A43G U102A U132C	1.6
A92G G139A G144A	0
G35C A64U U112C A141G	0.51
U13C U39C U87A	0.08
U1C U87A A129U	0.14

Variant	self-cleavage
U91A U96C A138G	0
U20C U115C C131G A141G	1.15
G55A A78G G114A	0.15
U14C A22U G54A U87A U115C A117G A140G	0.06
U47A A79C U87C A129G A141G	0
A6U U14C U47C	0.15
A6U A31G A79G C111U	1.74
A57U G60U U73A C98A	0.02
U46C U52C G135U	0.84
C17U A42G U112C	1.05
A79G U112C A138U	1.06
U15C A24G A136G	0.84
U14C U45A U104C	1.01
G70C A117G G144U	0.37
U14C G27U A65G	0.1
U26C C37U U85C G125A A129G G144A	0.3
U15C U104A U109C G114A	0.8
A64U U96C A140G	0.1
U5C A77U A78G U134A	0.58
A6G U20C U96C	0.85
U29A A67U U132A U134C G137A	0.2
A31U U39A A129G A136U U143A	1.92
C16U G35A G36C A136G	1.36
A59U U87C U132C A140G	0.26

Variant	self-cleavage
A2G U15C A24U U47C U81A	0.77
A64U U96C A141G	0.02
U20C A65G A140G	0
U29C G70A A77G U112C	0.24
U13C U20C A107U	1.4
U47C A79G U85A A129G	0
U9C U47A A57G U119C U134C A138G	0.66
C28A A43C U62C A124G C146U	0
U46A G75A U104C	0.89
U15C A77U U91C	0.95
U26A U46C A79U	2.38
U14C U62G A69G U96G	0
A24G U52A U96A U112C	0.13
U13C A92U U112A	1.2
C3U U26A A117G	0.77
U23A A30U A69G A77G U96C A138G	0
C101U A136G U143C	1.1
A24G U26C A140U	1.39
U9A U26C U52C A141G	1.53
G4U U5C A94G	0.45
U29C A64U A107G U108G	1.53
U5A A6U C68U U73A U119C C120U	0.66
A43G C71A A117G A138G	0.41
U85A U100C A140G	0.12

Variant	self-cleavage
C68U U85C G86A U108C	0.02
U29C A50G C84G U91C	0.38
A57U A79U U87G	0.05
A22G A67U G89A U104C	0.12
G27U A65G A142G U143A	0.07
G35U A42G A57G G70A A94G	0.09
A31G A77U U81A	1.95
U13C A117G A129U	0.71
A50U U112C A129G	0.45
U12A U13G U62C U96C	0
A6G C95U A107G	0.26
A50U A79U A129G U143C	1.87
U5C U46A U47C U112C G127U	0.53
U12A A22C A77U	1.23
U13C A42G U81C U109A A124G	0
A43G U62A U87A A121U U130A	0.05
U14C G82A U91C U102C U109C	0.67
A65G U85A U108C A136G	0
A6U U12G A43G	0
U12C U29C C145U	1.26
U14C U62C U73C U85A	0.05
A31C A124G A129U	2.14
U29C U112C A121G	1.97
U100C U119C A140G	1.82

Variant	self-cleavage
U14C C19U U39A A142G	1.06
U39C A57G A121U A138G	0.79
C90A U130C A136G	0.02
A59C U81A U143C	1.21
G10A U39A U73C U91C	0.39
U12G U73C A78G U87C	0
A2G U12C C38A A43G U87A	0.36
A43G U47A C84U A140G	0.06
U14A U102A A138G	1.46
U13C A50U U52C	0.54
U47C A94G A117C G126A U143G	0.18
A43G A94G U143A C145A	0.33
U85C G125A A129U	0.15
G32A A57U U62A U115A	0.02
C3U A94G A107G	0
U104C C111U A141G	2.74
G4A A22U G40A A107G A136G	1.09
A42G A65G G86A	0.03
U13G G89U U132A U134A	0.12
C3A U13C C66U U85C	0.04
A59U A64U U109C	0.57
U13C A59G U62A A77U A78G	0.38
U9C G48A U108C	0.38
G35A A69U A77G A94G U102C	0

Variant	self-cleavage
U20C G33A A64G U87C	0.27
U12C C19U A57G U132C	0
A59G A64U A129U	0.07
C3A U45A C76U	1.23
A43G C66U A92G	0.01
G35A A69G U73C A138G	0.38
A22G A92G U115C A121U	0
A24U A140G U143C	1.12
A43G U46C A129G	1.27
U45C G54A A78G A138G	0.19
G21A G34C U102A	1.78
U45C U62A A77U U132G A138G	0
U29C A30U G34A A65U U143C	0.25
U5C A65G A140G	0.15
A31G A136C G139A	0.9
C68U G125U A138G	0.21
U26A U45C A67G U112C A121U	0.54
U15A U26A U73G A136U A140G	1.93
G35A U91C U96C	0.05
A57G G72A A117G	0.62
U26C A92U U112A	1.15
U5C U26A U108C	1.75
A92G C98U U102C	0.02
A22G U29A A79G U134G	0.77

Variant	self-cleavage
A22G G32A A129G U134C U143C	0.17
A43G A65G A136G	0
A22G A42G G125U	1.09
U45C A50U A78G A140G	0.4
U108C A121G A141G	2.04
U13C U14G C66A U134C	0.37
U1C U9C U20G	1.34
A22G C61U A64G A107G	0
C37A U73C U132C	1.39
C38U A94U U100G	0.43
A42G A78G G97U A124U	0.1
U12A U13C U39C A43G	1.69
U52A U132C A136G	1.14
C3A U20C A92U U143C	0.73
U39C A42U C84A U115C A121U U143A	0
U81A U102C U112C U115A A121G	0
A69G A94G U109C	1.15
C56U A64G C76U U85C	0.03
A64G U81A U100C U112C A121C	1.06
G33A A42G A50G	2.22
U134C A142U U143C	1.57
U15C U87A A136G	0.06
U20G U73A U81C C145G	0.68
